# PMC4336329 (PLoS ONE, 2015)
# About 14,000 (4.5%) of roughly 310,000 compounds showed an effect of 50% or more. The effect is printed as a negative number. This is one part of the list.
# Target: human ether-à-go-go-related gene (hERG) potassium channel (human, UniProt Q12809)
# Test: primary screen, population patch clamp on CHO cells stably expressing hERG
# 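Note: peak tail current of the secondary pulse compared with the same well before compound.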
# Chain of human ether-à-go-go-related gene (hERG) potassium channel (Q12809 whole entry, looked up): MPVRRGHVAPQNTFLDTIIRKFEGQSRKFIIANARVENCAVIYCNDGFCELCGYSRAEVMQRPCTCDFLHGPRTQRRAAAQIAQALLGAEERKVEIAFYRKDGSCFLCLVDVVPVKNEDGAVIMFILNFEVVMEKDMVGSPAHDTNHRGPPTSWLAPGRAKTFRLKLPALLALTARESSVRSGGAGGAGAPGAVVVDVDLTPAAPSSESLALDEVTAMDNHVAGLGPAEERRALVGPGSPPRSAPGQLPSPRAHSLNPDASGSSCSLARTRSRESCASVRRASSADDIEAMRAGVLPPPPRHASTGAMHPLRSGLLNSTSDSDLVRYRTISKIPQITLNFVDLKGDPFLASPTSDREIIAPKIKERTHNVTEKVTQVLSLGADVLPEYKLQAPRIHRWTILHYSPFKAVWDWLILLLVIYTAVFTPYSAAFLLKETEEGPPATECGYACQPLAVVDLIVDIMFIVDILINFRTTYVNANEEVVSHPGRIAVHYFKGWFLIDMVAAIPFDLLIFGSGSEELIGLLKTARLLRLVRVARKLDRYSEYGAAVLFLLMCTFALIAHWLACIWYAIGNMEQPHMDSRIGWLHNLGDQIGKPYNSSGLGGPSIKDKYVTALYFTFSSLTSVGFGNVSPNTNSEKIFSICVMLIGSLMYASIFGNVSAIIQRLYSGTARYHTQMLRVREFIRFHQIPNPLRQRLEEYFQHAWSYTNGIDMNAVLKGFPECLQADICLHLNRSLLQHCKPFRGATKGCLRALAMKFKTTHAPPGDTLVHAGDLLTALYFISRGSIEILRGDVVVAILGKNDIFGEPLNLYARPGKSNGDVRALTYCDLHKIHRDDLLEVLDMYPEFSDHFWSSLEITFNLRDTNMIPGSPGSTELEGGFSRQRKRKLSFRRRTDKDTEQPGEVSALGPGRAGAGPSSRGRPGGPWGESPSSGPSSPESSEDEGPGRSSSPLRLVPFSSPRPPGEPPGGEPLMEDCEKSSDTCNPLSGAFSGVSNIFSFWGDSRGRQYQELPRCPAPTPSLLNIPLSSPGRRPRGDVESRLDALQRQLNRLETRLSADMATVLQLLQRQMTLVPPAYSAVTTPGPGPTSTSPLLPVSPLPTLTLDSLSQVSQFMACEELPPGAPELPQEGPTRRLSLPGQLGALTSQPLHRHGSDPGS
row,SMILES,"hERG current change (%, negative = inhibition) at 10uM [%]"
1,COc1ccc2nc3sc(C(=O)N4CCN(C)CC4)cc3cc2c1,-33.5
2,O=C1N[C@H](Cc2ccccc2)CO1,10.5
3,O=C(Nc1ccc2c(c1)OCCO2)c1cnn(-c2ccccc2)n1,-6.02
4,CC(=O)Nc1ccc(NC(=S)NC(=O)C2CCCC2)cc1,-6.01
5,COc1ccc(-n2cccc2/C=C2/NC(=O)N(c3cccc(Cl)c3)C2=O)cc1,5.24
6,Cc1ccccc1-c1nnc(-c2ccccc2C)o1,2.05
7,Cc1cccc(NCC(=O)N/N=C\c2ccc[nH]2)c1,16.8
8,CCOc1ccc(NC(=O)Cn2cncc2-c2ccc([N+](=O)[O-])cc2)cc1,-1.87
9,CCN1CCN(CC(=O)c2c(C)n(Cc3ccccc3)c3ccc(OC)cc23)CC1,-41.3
10,CCc1nc2sccc2c(=O)[nH]1,15.4
11,CC(/C=C/c1ccccc1)=N\NC(=S)NC(C)C,-2.54
12,Cc1cccc(NC(=O)c2sc(NC(=O)c3ccco3)c(C#N)c2C)c1C,5.79
13,COc1ccccc1C(=O)NC(=S)Nc1ccc(N2CCN(C(=O)c3ccco3)CC2)cc1,-5.07
14,CC12CCC(=O)N1C(C(=O)OCC(=O)Nc1ccc(S(N)(=O)=O)cc1)CS2 (stereo not drawn),8.56
15,CCN(CC)S(=O)(=O)c1ccc(Cl)c(NC(=O)COC(=O)c2cccn2C)c1,8.63
16,COC(=O)c1cnc(SCc2ccc(Cl)cc2)n1C,-21.5
17,COc1ccc(O)c(C2=Nc3ccccc3N=C(c3cccs3)C2)c1,17.1
18,CCn1c(=O)n(CC)c2cc(S(=O)(=O)N3CCC(c4ccccc4)CC3)ccc21,-4.56
19,CCCNC(=S)N1CC2(C)CN(C(=O)C(=O)OC)CC(C)(C1)C2=O,11.8
20,CCN(Cc1ccccc1)S(=O)(=O)c1cc(C(=O)NCCCN(C)C)ccc1OC,-50.3

row,SMILES,"hERG current change (%, negative = inhibition) at 10uM [%]"
1,O=C(Nc1ccccc1Br)c1cc[n+]([O-])cc1,21.1
2,Cc1onc(-c2ccccc2Cl)c1C(=O)N1CCCCC1C (stereo not drawn),-2.84
3,O=C1c2ccccc2C(=O)C1c1ccccc1F,-1.72
4,COc1ccc(CNCc2ccc3c(c2)OCO3)c(OC)c1OC.O=C(O)C(=O)O,1.71
5,CCN(CC(=O)Nc1c(F)cccc1F)C(=O)Cc1ccc2c(c1)CCC2,6.48
6,O=C(COC(=O)c1ccccc1F)NC1CC1,-6.55
7,O=C(Cn1c(C(F)(F)F)nc2ccccc21)Nc1ccccc1N1CCOCC1,-7.87
8,O=C(NC(=O)c1c(F)cccc1F)Nc1ccccc1SC(F)F,-10.1
9,CCOC(=O)c1ccccc1NC1OC(=O)c2ccccc21 (stereo not drawn),13.1
10,COc1cc(CNC2CCCC2)cc(Cl)c1OCc1ccccc1F.Cl,-1.44
11,CCc1ccc2c(CN3CCC(C(=O)OC)CC3)cc(=O)oc2c1,-45.2
12,COC(=O)CSc1nc(NC(C)(C)C)nc(N(C)C)n1,-26.3
13,O=C1NC(c2ccc(Cl)cc2)=COc2ccccc21,10.4
14,Cc1ccc(-c2csc3ncn(CC#N)c(=O)c23)cc1C,4.94
15,CN(C)CCN1C(=O)c2oc3ccc(Cl)cc3c(=O)c2C1c1cccc(Br)c1 (stereo not drawn),-45.2
16,CC(=O)Nc1ccc(-c2csc(NNC(=O)c3ccccc3)n2)cc1,24.7
17,O=c1[nH]c2c(oc3ccccc32)c(=O)n1Cc1ccccc1,13.8
18,Cc1ccc(NC(=O)c2cc(=O)[nH]c3ccccc23)cc1C,18.5
19,Nc1cc(=O)nc(SCC(=O)NCc2ccccc2)n1CCc1ccccc1,-5.55
20,Cc1ccc(NCc2n[nH]c(=S)n2-c2ccccc2)cc1,15

row,SMILES,"hERG current change (%, negative = inhibition) at 10uM [%]"
1,NC(=O)c1ccc(NCC2CCCO2)c([N+](=O)[O-])c1 (stereo not drawn),12.7
2,CC(C)(C)C(=O)Nc1ccccc1C(=O)Nc1ccccn1,3.65
3,COc1ccccc1N1CCN(C(=O)C2CCN(C(=O)c3ccccc3C)CC2)CC1,11.8
4,CC(C)N1CCN(Cc2cc3ccccc3[nH]2)CC1CCO (stereo not drawn),6.72
5,C=C(C)COc1ccc(-c2ncncc2-c2ccccc2)c(O)c1,0.141
6,CCC(C)NC(=O)[C@H]1N2C(=O)c3ccccc3C2SC1(C)C (stereo partly drawn),12.8
7,CCCCn1c(SCC(=O)NCCOC)nc2ccc(N3CCOCC3)cc2c1=O,-2.94
8,C=CCn1cccc(C(=O)Nc2cc(OC)ccc2OC)c1=O,1.46
9,COc1ccc(F)cc1S(=O)(=O)Nc1ccc2c(c1)OCCO2,1.97
10,O=C(O)CCSCc1ccccc1F,11.4
11,CCCCN(C(=O)c1ccc(N(C)S(=O)(=O)c2ccc(C)cc2)cc1)c1c(N)n(CCCC)c(=O)[nH]c1=O,0.667
12,CCOc1ccccc1Nc1nc(N)nc(CSc2nncn2C)n1,11.1
13,OCCOCC#CCN1CCOCC1,4.12
14,Cc1ccc(N(CC(=O)N/N=C/c2cc(C)n(-c3ccccc3)c2C)S(C)(=O)=O)c(C)c1,1.03
15,Cc1cc(-c2c(C)[nH]n(-c3ccccc3)c2=O)n[nH]1,4.25
16,O=C(COC(=O)/C=C/c1ccc(Cl)cc1)NC1CCCCCC1,-1.22
17,CCN(CC)c1ccc(NC(=O)Nc2ccc(C(C)=O)cc2)cc1,9.41
18,CNC(=S)Nc1cccc2[nH]ncc12,-1.27
19,Cc1c(C(=O)OCC(=O)N2c3ccccc3CC2C)oc2ccccc12 (stereo not drawn),16.5
20,CCCCOc1ccc(C(=O)OCC(=O)Nc2cc(C)on2)cc1,9.82
